Reference: the supplement of paper PMC11741623
The list shows a part of the results. Interaction screen of human proteins with wild-type SARS-CoV-2 proteins by split-DHFR complementation in yeast, 1 µg/mL methotrexate. Value = fitness of the pair (three or more lineages) minus that of the viral protein without a human partner, on a scale set by negative (0) and fused positive (1) controls, mean of up to three cultures; higher = more likely to interact. Active = false discovery rate below 0.05 (one-sided t-test) in at least one culture. Nearly all pairs are not hits, and differences among them are mostly noise (correlation between cultures about 0.3); most hits were seen in one culture only. Human sequences are the Swiss-Prot entries looked up by gene name; the clone may be another isoform. NSP2 values were corrected by the authors for a growth advantage. Listed are human proteins with a hit and a random twelfth of the others.

B1: FAM161A, Q3B820 (protein)
chain: MATSHRVAKLVASSLQTPVNPITGARVAQYEREDPLKALAAAEAILEDEEEEKVAQPAGASADLNTSFSGVDEHAPISYEDFVNFPDIHHSNEEYFKKVEELKAAHIETMAKLEKMYQDKLHLKEVQPVVIREDSLSDSSRSVSEKNSYHPVSLMTSFSEPDLGQSSSLYVSSSEEELPNLEKEYPRKNRMMTYAKELINNMWTDFCVEDYIRCKDTGFHAAEKRRKKRKEWVPTITVPEPFQMMIREQKKKEESMKSKSDIEMVHKALKKQEEDPEYKKKFRANPVPASVFLPLYHDLVKQKEERRRSLKEKSKEALLASQKPFKFIAREEQKRAAREKQLRDFLKYKKKTNRFKARPIPRSTYGSTTNDKLKEEELYRNLRTQLRAQEHLQNSSPLPCRSACGCRNPRCPEQAVKLKCKHKVRCPTPDFEDLPERYQKHLSEHKSPKLLTVCKPFDLHASPHASIKREKILADIEADEENLKETRWPYLSPRRKSPVRCAGVNPVPCNCNPPVPTVSSRGREQAVRKSEKERMREYQRELEEREEKLKKRPLLFERVAQKNARMAAEKHYSNTLKALGISDEFVSKKGQSGKVLEYFNNQETKSVTEDKESFNEEEKIEERENGEENYFIDTNSQDSYKEKDEANEESEEEKSVEESH
B2: FAM89B, Q8N5H3 (protein)
chain: MNGLPSAEAPGGAGCALAGLPPLPRGLSGLLNASGGSWRELERVYSQRSRIHDELSRAARAPDGPRHAAGAANAGPAAGPRRPVNLDSALAALRKEMVGLRQLDMSLLCQLWGLYESIQDYKHLCQDLSFCQDLSSSLHSDSSYPPDAGLSDDEEPPDASLPPDPPPLTVPQTHNARDQWLQDAFHISL
B3: IL25, Q9H293 (protein)
chain: MRERPRLGEDSSLISLFLQVVAFLAMVMGTHTYSHWPSCCPSKGQDTSEELLRWSTVPVPPLEPARPNRHPESCRASEDGPLNSRAISPWRYELDRDLNRLPQDLYHARCLCPHCVSLQTGSHMDPRGNSELLYHNQTVFYRRPCHGEKGTHKGYCLERRLYRVSLACVCVRPRVMG
B4: KIAA0355, O15063 (protein)
chain: MYCCSAQDSKMDYKRRFLLGGSKQKVQQHQQYPMPELGRALSAPLASTATTAPLGSLTAAGSCHHAMPHTTPIADIQQGISKYLDALNVFCRASTFLTDLFSTVFRNSHYSKAATQLKDVQEHVMEAASRLTSAIKPEIAKMLMELSAGAANFTDQKEFSLQDIEVLGRCFLTVVQVHFQFLTHALQKVQPVAHSCFAEVIVPEKKNSGSGGGLSGMGHTPEVEEAVRSWRGAAEATSRLRERGCDGCLAGIEVQQLFCSQSAAIPEHQLKELNIKIDSALQAYKIALESLGHCEYAMKAGFHLNPKAIEASLQGCCSEAEAQQTGRRQTPPQPMQCELPTVPVQIGSHFLKGVSFNESAADNLKLKTHTMLQLMKEAGCYNGITSRDDFPVTEVLNQVCPSTWRGACKTAVQLLFGQAGLVVVDTAQIENKEAYAPQISLEGSRIVVQVPSTWCLKEDPATMSLLQRSLDPEKTLGLVDVLYTAVLDLNRWRAGREQALPCIQIQLQREICDFGNQADLPSGNGNKSSGGLQKTFSKLTSRFTKKASCTSSSSSTNYSIQNTPSKNIFIAGCSEEKAKMPGNIDTRLQSILNIGNFPRTTDPSQSAQNSSNTVANGFLMERRENFLHGDDGKDEKGMNLPTDQEMQEVIDFLSGFNMGQSHQGSPLVTRHNSAATAMVTEQKAGAMQPQQPSLPVPPPPRAPQAGAHTPLTPQPGLAPQQQSPKQQQPQVQYYQHLLQPIGPQQPPPQPRAPGKWVHGSSQQPAQAVGAGLSPLGQWPGISDLSSDLYSLGLVSSYMDNVMSEVLGQKPQGPRNNTWPNRDQSDGVFGMLGEILPFDPAVGSDPEFARYVAGVSQAMQQKRQAQHGRRPGNPRGNWPPMDDAHRTWPFPEFFTEGDGLHGGWSGAQGDSASSSDETSSANGDSLFSMFSGPDLVAAVKQRRKHSSGEQDTSTLPSPPLLTTVEDVNQDNKTKTWPPKAPWQHPSPLPSTLPSPSAPLYAVTSPGSQWNDTMQMLQSPVWAATNDCSAAAFSYVQTPPQPPPPPAHKAAPKGFKAFPGKGERRPAYLPQY

What follows are binders tested against SARS-CoV-2 M (assay: yeast fitness gain over the viral ORF with no human partner (scaled fitness); higher = more likely to interact).
Experimental: (§1)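 Split mouse DHFR complementation in pooled diploid yeast: human ORFeome clones carry one fragment and viral ORFs the other; barcoded lineages compete in 1 µg/mL methotrexate and fitness is read by barcode sequencing in up to three cultures.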
With B1 the yeast fitness gain was inactive: 0.00154. B2 was tested, and the yeast fitness gain was inactive: 0.0324. B3 was tested, and the yeast fitness gain was inactive: 0.0512. For B4, the yeast fitness gain was inactive: 0.0763.

Each binder was assayed against SARS-CoV-2 NSP10 in the same assay as above.
Experimental: as §1
B1 was tested, and the yeast fitness gain was inactive: -0.0423. In the case of B2, the yeast fitness gain is reported as inactive: -0.0158. With B3 the yeast fitness gain was inactive: 0.00664. For B4, the yeast fitness gain was inactive: 0.0484.

What follows are binders tested against SARS-CoV-2 NSP12 in the same assay as above.
Experimental: as §1
B1 was tested, and the yeast fitness gain was inactive: 0.00733. For B2, the yeast fitness gain was inactive: 0.052. B3 was tested, and the yeast fitness gain was inactive: 0.0218. For B4, the yeast fitness gain was inactive: 0.095.

Each binder was assayed against SARS-CoV-2 NSP13 in the same assay as above.
Experimental: as §1
With B1 the yeast fitness gain was inactive: -0.434. B2 was tested, and the yeast fitness gain was inactive: -0.0923. With B3 the yeast fitness gain was inactive: -0.00396. For B4, the yeast fitness gain was inactive: 0.0157.

These binders were tested against SARS-CoV-2 NSP16 in the same assay as above.
Experimental: as §1
For B1, the yeast fitness gain was inactive: -0.0498. In the case of B2, the yeast fitness gain is reported as inactive: 0.0374. B3 was tested, and the yeast fitness gain was inactive: 0.0762. In the case of B4, the yeast fitness gain is reported as inactive: -0.00556.

Each binder was assayed against SARS-CoV-2 NSP2 in the same assay as above.
Experimental: as §1
For B1, the yeast fitness gain was inactive: -0.171. With B2 the yeast fitness gain was inactive: -0.182. B3 was tested, and the yeast fitness gain was inactive: -0.00308. In the case of B4, the yeast fitness gain is reported as inactive: -0.101.

The binders below were run against SARS-CoV-2 NSP5 in the same assay as above.
Experimental: as §1
In the case of B1, the yeast fitness gain is reported as inactive: -0.0243. B2 was tested, and the yeast fitness gain was inactive: -0.147. In the case of B3, the yeast fitness gain is reported as inactive: 0.0427. For B4, the yeast fitness gain was inactive: -0.0415.

What follows are binders tested against SARS-CoV-2 NSP7 in the same assay as above.
Experimental: as §1
With B1 the yeast fitness gain was inactive: -0.0826. With B2 the yeast fitness gain was inactive: 0.0149. B4 was tested, and the yeast fitness gain was inactive: -0.0585.

What follows are binders tested against SARS-CoV-2 NSP8 in the same assay as above.
Experimental: as §1
In the case of B1, the yeast fitness gain is reported as inactive: -0.0669. B2 was tested, and the yeast fitness gain was inactive: -0.0039. In the case of B3, the yeast fitness gain is reported as inactive: 0.033. For B4, the yeast fitness gain was inactive: -0.12.

Each binder was assayed against SARS-CoV-2 NSP9 in the same assay as above.
Experimental: as §1
With B1 the yeast fitness gain was inactive: -0.0459. In the case of B2, the yeast fitness gain is reported as inactive: -0.0224. In the case of B4, the yeast fitness gain is reported as inactive: -0.00865.

The binders below were run against SARS-CoV-2 ORF10 in the same assay as above.
Experimental: as §1
B1 was tested, and the yeast fitness gain was inactive: 0.00872. In the case of B2, the yeast fitness gain is reported as inactive: 0.000941. For B3, the yeast fitness gain was inactive: -0.0117. With B4 the yeast fitness gain was inactive: 0.056.

The binders below were run against SARS-CoV-2 ORF3B in the same assay as above.
Experimental: as §1
For B1, the yeast fitness gain was inactive: 0.0692. With B2 the yeast fitness gain was inactive: 0.0461. In the case of B3, the yeast fitness gain is reported as inactive: -0.0129. In the case of B4, the yeast fitness gain is reported as inactive: -0.0234.

These binders were tested against SARS-CoV-2 ORF6 in the same assay as above.
Experimental: as §1
B1 was tested, and the yeast fitness gain was inactive: -0.0422. B2 was tested, and the yeast fitness gain was inactive: -0.0573. In the case of B3, the yeast fitness gain is reported as inactive: 0.0602. B4 was tested, and the yeast fitness gain was inactive: -0.031.

Each binder was assayed against SARS-CoV-2 ORF7B in the same assay as above.
Experimental: as §1
In the case of B1, the yeast fitness gain is reported as inactive: -0.203. With B2 the yeast fitness gain was inactive: -0.00299. In the case of B3, the yeast fitness gain is reported as inactive: -0.085. For B4, the yeast fitness gain was inactive: 0.0476.

What follows are binders tested against SARS-CoV-2 ORF8 in the same assay as above.
Experimental: as §1
In the case of B1, the yeast fitness gain is reported as inactive: -0.0602. With B2 the yeast fitness gain was inactive: -0.0384. B3 was tested, and the yeast fitness gain was inactive: -0.0297. In the case of B4, the yeast fitness gain is reported as inactive: -0.0327.

The binders below were run against SARS-CoV-2 ORF9B in the same assay as above.
Experimental: as §1
B1 was tested, and the yeast fitness gain was inactive: 0.0197. For B2, the yeast fitness gain was inactive: 0.0685. With B3 the yeast fitness gain was inactive: 0.0283. With B4 the yeast fitness gain was inactive: 0.0731.

What follows are binders tested against SARS-CoV-2 ORF9Bwu (the 73-codon ORF) in the same assay as above.
Experimental: as §1
For B1, the yeast fitness gain was inactive: 0.0672. In the case of B2, the yeast fitness gain is reported as inactive: -0.144. B4 was tested, and the yeast fitness gain was inactive: -0.00913.

What follows are binders tested against SARS-CoV-2 S in the same assay as above.
Experimental: as §1
With B1 the yeast fitness gain was inactive: -0.128. B2 was tested, and the yeast fitness gain was inactive: -0.1. With B4 the yeast fitness gain was inactive: 0.00105.

What follows are binders tested against SARS-CoV-2 N in the same assay as above.
Experimental: as §1
With B2 the yeast fitness gain was inactive: 0.016. B3 was tested, and the yeast fitness gain was inactive: 0.223.

Each binder was assayed against SARS-CoV-2 NSP1 in the same assay as above.
Experimental: as §1
B2 was tested, and the yeast fitness gain was inactive: 0.0625. For B4, the yeast fitness gain was inactive: 0.0241.

The binders below were run against SARS-CoV-2 NSP15 in the same assay as above.
Experimental: as §1
With B2 the yeast fitness gain was inactive: 0.0291. For B4, the yeast fitness gain was inactive: 0.0114.

The binders below were run against SARS-CoV-2 NSP6 in the same assay as above.
Experimental: as §1
B2 was tested, and the yeast fitness gain was inactive: -0.066. In the case of B3, the yeast fitness gain is reported as inactive: 0.00991. B4 was tested, and the yeast fitness gain was inactive: -0.00775.

Each binder was assayed against SARS-CoV-2 ORF3A in the same assay as above.
Experimental: as §1
With B2 the yeast fitness gain was inactive: 0.0335. In the case of B4, the yeast fitness gain is reported as inactive: -0.081.

These binders were tested against SARS-CoV-2 ORF7A in the same assay as above.
Experimental: as §1
B2 was tested, and the yeast fitness gain was inactive: -0.0652. In the case of B3, the yeast fitness gain is reported as inactive: -2e-05. In the case of B4, the yeast fitness gain is reported as inactive: 0.0782.

What follows are binders tested against SARS-CoV-2 NSP14 in the same assay as above.
Experimental: as §1
B3 was tested, and the yeast fitness gain was inactive: -0.0622.

Each binder was assayed against SARS-CoV-2 NSP4 in the same assay as above.
Experimental: as §1
In the case of B3, the yeast fitness gain is reported as inactive: 0.0125.
